Data as given in the supplement of paper PMC12217912.
The list shows a part of the results. Sequences were assembled here from the parent chain. Values near 0.05 are background.

B1: TEV protease; numbered along this chain (parent)
chain: MGESLFKGPRDYNPISSSICHLTNESDGHTTSLYGIGFGPFIITNKHLFRRNNGTLVVQSLHGVFKVKDTTTLQQHLVDGRDMIIIRMPKDFPPFPQKLKFREPQREERICLVTTNFQTKSMSSMVSDTSCTFPSGDGIFWKHWIQTKDGQCGSPLVSTRDGFIVGIHSASNFTNTNNYFTSVPKNFMELLTNQEAQQWVSGWRLNADSVLWGGHKVFMVKPEEPFQPVKEATQL

Variants of: B1
Assay: raw area under fraction-flipped curve 0-4 h after induction (AUC4h, not background-subtracted), DNA-recorder readout of cleavage of the substrate (dimensionless); higher = more cleavage of the substrate by the protease variant
Settings: temperature: 34 °C; time window: 0-4 h after rhamnose induction
Method: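 In vivo DNA recorder in E. coli TOP10(DE3) ΔrhaA at 34 °C. Each TEVp single-site mutant (parent TEVp 0) is paired with a single-site variant of the 7-mer TEVs (canonical ENLYFQ|S). The substrate sits between flexible linkers in a Bxb1-sfGFP-TEVs-SsrA fusion, so cleavage stabilises Bxb1 and speeds flipping of a recombination array, read by NGS. The value is the raw area under the fraction-flipped curve over 0-4 h after rhamnose induction (AUC4h), with ≥20 reads per time point. It is not background-subtracted; inactive controls average about 0.047.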
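Also: Bxb1 expression induced with 0.2% (w/v) L-rhamnose at OD600 near 0.5, cultures sampled hourly, flipped fraction per protease–substrate barcode pair counted by paired-end Illumina sequencing.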

Row | Variant | area with substrate ENAYFQS | area with substrate ENCYFQS | area with substrate ENEYFQS | area with substrate ENFYFQS | area with substrate ENGYFQS | area with substrate ENHYFQS | area with substrate ENIYFQS | area with substrate ENKYFQS | area with substrate ENNYFQS | area with substrate ENQYFQS | area with substrate ENSYFQS | area with substrate ENVYFQS | area with substrate ENRYFQS | area with substrate ENTYFQS | area with substrate ENYYFQS | area with substrate ENPYFQS | area with substrate ENDYFQS | area with substrate ENWYFQS | area with substrate ENMYFQS
1 | MGESLFKGPRDYNPISSSICHLTNESDGHTTSLYGIGFGPFIITNKHLFRRNNGTLVVQSLHGVFKVKDTTTLQQHLVDGRDMIIIRMPKDFPPFKQKLKFREPQREERICLVTTNFQTKSMSSMVSDTSCTFPSGDGIFWKHWIQTKDGQCGSPLVSTRDGFIVGIHSASNFTNTNNYFTSVPKNFMELLTNQEAQQWVSGWRLNADSVLWGGHKVFMVKPEEPFQPVKEATQL [P96K] | 0.0726 | 0.0716 | 0.0593 | 0.0652 | 0.0588 | 0.0731 | 0.0865 | 0.0627 | 0.0681 | 0.0569 | 0.0113 | 0.0833 |  |  |  |  |  |  | 
2 | MGESLFKGPRDYNPISSSICHLTNESDGHTTSLYGIGFGPFIITNKHLFRRNNGTLVVQSLHGVFKVKDTTTLQQHLVDGRDMIIIRMPKDFPPFMQKLKFREPQREERICLVTTNFQTKSMSSMVSDTSCTFPSGDGIFWKHWIQTKDGQCGSPLVSTRDGFIVGIHSASNFTNTNNYFTSVPKNFMELLTNQEAQQWVSGWRLNADSVLWGGHKVFMVKPEEPFQPVKEATQL [P96M] | 0.0377 |  | 0.0566 | 0.0545 | 0.0657 | 0.0099 | 0.0883 | 0.0501 | 0.0593 | 0.0912 | 0.0731 | 0.0688 | 0.0641 | 0.048 | 0.0426 |  |  |  | 
3 | MGESLFKGPRDYNPISSSICHLTNESDGHTTSLYGIGFGPFIITNKHLFRRNNGTLVVQSLHGVFKVKDTTTLQQHLVDGRDMIIIRMPKDFPPFFQKLKFREPQREERICLVTTNFQTKSMSSMVSDTSCTFPSGDGIFWKHWIQTKDGQCGSPLVSTRDGFIVGIHSASNFTNTNNYFTSVPKNFMELLTNQEAQQWVSGWRLNADSVLWGGHKVFMVKPEEPFQPVKEATQL [P96F] | 0.0522 |  | 0.0484 |  | 0.0348 |  | 0.117 | 0.0536 | 0.0694 | 0.061 | 0.0658 | 0.0567 | 0.0436 | 0.0502 | 0.0669 | 0.0682 |  |  | 
4 | MGESLFKGPRDYNPISSSICHLTNESDGHTTSLYGIGFGPFIITNKHLFRRNNGTLVVQSLHGVFKVKDTTTLQQHLVDGRDMIIIRMPKDFPPFLQKLKFREPQREERICLVTTNFQTKSMSSMVSDTSCTFPSGDGIFWKHWIQTKDGQCGSPLVSTRDGFIVGIHSASNFTNTNNYFTSVPKNFMELLTNQEAQQWVSGWRLNADSVLWGGHKVFMVKPEEPFQPVKEATQL [P96L] | 0.0685 | 0.0659 | 0.0563 | 0.0653 |  |  |  |  |  | 0.0872 | 0.0608 |  | 0.0639 | 0.0529 |  |  | 0.0673 |  | 
5 | MGESLFKGPRDYNPISSSICHLTNESDGHTTSLYGIGFGPFIITNKHLFRRNNGTLVVQSLHGVFKVKDTTTLQQHLVDTRDMIIIRMPKDFPPFPQKLKFREPQREERICLVTTNFQTKSMSSMVSDTSCTFPSGDGIFWKHWIQTKDGQCGSPLVSTRDGFIVGIHSASNFTNTNNYFTSVPKNFMELLTNQEAQQWVSGWRLNADSVLWGGHKVFMVKPEEPFQPVKEATQL [G80T] | 0.0747 |  |  | 0.065 | 0.0496 | 0.0558 |  | 0.067 |  | 0.0648 | 0.0671 | 0.0913 |  | 0.0593 |  |  |  |  | 
6 | MGESLFKGPRDYNPISSSICHLTNESDGHTTSLYGIGFGPFIITNKHLFRRNNGTLVVQSLHGVFKVKDTTTLQQHLVDCRDMIIIRMPKDFPPFPQKLKFREPQREERICLVTTNFQTKSMSSMVSDTSCTFPSGDGIFWKHWIQTKDGQCGSPLVSTRDGFIVGIHSASNFTNTNNYFTSVPKNFMELLTNQEAQQWVSGWRLNADSVLWGGHKVFMVKPEEPFQPVKEATQL [G80C] | 0.0493 | 0.0824 | 0.0507 | 0.0073 | 0.0538 |  | 0.126 |  | 0.0832 | 0.0588 | 0.046 | 0.0676 | 0.0602 | 0.0186 | 0.054 |  | 0.0559 |  | 
7 | MGESLFKGPRDYNPISSSICHLTNESDGHTTSLYGIGFGPFIITNKHLFRRNNGTLVVQSLHGVFKVKDTTTLQQHLVDKRDMIIIRMPKDFPPFPQKLKFREPQREERICLVTTNFQTKSMSSMVSDTSCTFPSGDGIFWKHWIQTKDGQCGSPLVSTRDGFIVGIHSASNFTNTNNYFTSVPKNFMELLTNQEAQQWVSGWRLNADSVLWGGHKVFMVKPEEPFQPVKEATQL [G80K] | 0.0639 |  | 0.0591 |  |  | 0.0514 | 0.0913 | 0.0543 | 0.0553 | 0.0892 | 0.0609 |  | 0.0591 | 0.0595 | 0.0588 | 0.0402 | 0.0566 | 0.0522 | 
8 | MGESLFKGPRDYNPISSSICHLTNESDGHTTSLYGIGFGPFIITNKHLFRRNNGTLVVQSLHGVFKVKDTTTLQQHLVDNRDMIIIRMPKDFPPFPQKLKFREPQREERICLVTTNFQTKSMSSMVSDTSCTFPSGDGIFWKHWIQTKDGQCGSPLVSTRDGFIVGIHSASNFTNTNNYFTSVPKNFMELLTNQEAQQWVSGWRLNADSVLWGGHKVFMVKPEEPFQPVKEATQL [G80N] | 0.0603 | 0.07 | 0.0634 | 0.0488 | 0.0642 | 0.0584 | 0.125 | 0.0698 | 0.0482 | 0.058 | 0.0603 |  | 0.0494 | 0.0707 | 0.0611 | 0.103 | 0.0656 |  | 0.076
9 | MGESLFKGPRDYNPISSSICHLTNESDGHTTSLYGIGFGPFIITNKHLFRRNNGTLVVQSLHGVFKVKDTTTLQQHLVDGRDMIIIRQPKDFPPFPQKLKFREPQREERICLVTTNFQTKSMSSMVSDTSCTFPSGDGIFWKHWIQTKDGQCGSPLVSTRDGFIVGIHSASNFTNTNNYFTSVPKNFMELLTNQEAQQWVSGWRLNADSVLWGGHKVFMVKPEEPFQPVKEATQL [M88Q] | 0.0705 |  |  |  |  | 0.0816 |  |  |  | 0.0528 | 0.0484 |  | 0.0179 | 0.037 | 0.0685 |  | 0.0602 |  | 
10 | MGESLFKGPRDYNPISSSICHLTNESDGHTTSLYGIGFGPFIITNKHLFRRNNGTLVVQSLHGVFKVKDTTTLQQHLVDGRDMIIIRWPKDFPPFPQKLKFREPQREERICLVTTNFQTKSMSSMVSDTSCTFPSGDGIFWKHWIQTKDGQCGSPLVSTRDGFIVGIHSASNFTNTNNYFTSVPKNFMELLTNQEAQQWVSGWRLNADSVLWGGHKVFMVKPEEPFQPVKEATQL [M88W] | 0.0512 | 0.0429 | 0.0376 | 0.0357 | 0.0474 |  | 0.0494 | 0.0341 | 0.0471 | 0.0599 | 0.0526 | 0.0595 |  | 0.0555 | 0.0555 | 0.0652 | 0.0604 |  | 
